# The list shows a part of the results.
# B1: PfulAvr4 (Pseudocercospora fuligena) (protein)
# chain: HHHHHHDYKDDDDKTYVQDKTPAFVCPAADIKTTKCLGPKDCLYPSPKTCNGYIQCSPADDSYLTGIIHEMPCPSGLLWNDNKKWCDWPENTTCGLVKSAGATEVDATKQGPTPGKYHG
# Key:
# Assay in all cases: glycan array binding signal (z-score within array); higher = stronger binding
# Settings in all cases: glycan notation: IUPAC condensed, linker removed
# [1] = biological target: Gal3S(b1-4)Glc
# Summary of the method: (§1)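 Glycan array data were curated from 3228 arrays in the Consortium for Functional Glycomics database and kept only where the protein sequence was available. Glycan names were converted to IUPAC-condensed notation, and columns mapping to the same glycan were averaged. The binding signal is a within-array Z-score, averaged across arrays of the same protein sequence at different concentrations or buffers and across linkers. Negative Z-scores can be read as non-binding.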
# [2] = biological target: Gal3S(b1-4)Glc6S
# Summary of the method: as §1
# [3] = biological target: Gal3S(b1-4)GlcNAc
# Summary of the method: as §1
# [4] = biological target: Gal3S(b1-4)[Fuc(a1-3)]Glc6S
# Summary of the method: as §1
# [5] = biological target: Gal3S(b1-4)[Fuc(a1-3)]GlcNAc
# Summary of the method: as §1
# [6] = biological target: Gal3S(b1-4)[Fuc(a1-3)]GlcNAc6S
# Summary of the method: as §1
# [7] = biological target: Gal3S4S(b1-4)GlcNAc
# Summary of the method: as §1
# [8] = biological target: Gal3S6S(b1-4)GlcNAc
# Summary of the method: as §1
# [9] = biological target: Gal3S6S(b1-4)GlcNAc6S
# Summary of the method: as §1
# [10] = biological target: Gal4S(b1-4)GlcNAc
# Summary of the method: as §1
# [11] = biological target: Gal4S6S(b1-4)GlcNAc
# Summary of the method: as §1
# [12] = biological target: Gal6P(b1-4)GlcNAc
# Summary of the method: as §1
# [13] = biological target: Gal6S(b1-3)GlcNAc
# Summary of the method: as §1
# [14] = biological target: Gal6S(b1-3)GlcNAc6S
# Summary of the method: as §1
# [15] = biological target: Gal6S(b1-4)Glc
# Summary of the method: as §1
# [16] = biological target: Gal6S(b1-4)Glc6S
# Summary of the method: as §1
# [17] = biological target: Gal6S(b1-4)GlcNAc
# Summary of the method: as §1
# [18] = biological target: Gal6S(b1-4)GlcNAc6S
# Summary of the method: as §1
# [19] = biological target: GalNAc(a1-3)Gal
# Summary of the method: as §1
# [20] = biological target: GalNAc(a1-3)GalNAc
# Summary of the method: as §1
# [21] = biological target: GalNAc(a1-3)GalNAc(b1-3)Gal(a1-4)Gal(b1-4)Glc
# Summary of the method: as §1
# [22] = biological target: GalNAc(a1-3)GalNAc(b1-3)Gal(a1-4)Gal(b1-4)GlcNAc
# Summary of the method: as §1
# [23] = biological target: GalNAc(b1-3)Gal
# Summary of the method: as §1
# [24] = biological target: GalNAc(b1-3)Gal(a1-4)Gal(b1-4)GlcNAc
# Summary of the method: as §1
# [25] = biological target: GalNAc(b1-3)Gal(a1-4)Gal(b1-4)GlcNAc(b1-3)Gal(b1-4)Glc
# Summary of the method: as §1
# [26] = biological target: GalNAc(b1-3)Gal(a1-6)Gal(b1-4)Glc
# Summary of the method: as §1
# [27] = biological target: GalNAc(b1-3)GalNAc
# Summary of the method: as §1
# [28] = biological target: GalNAc(b1-3)GlcNAc
# Summary of the method: as §1
# [29] = biological target: GalNAc(b1-4)Gal(b1-4)Glc
# Summary of the method: as §1
# [30] = biological target: GalNAc(b1-4)GlcNAc
# Summary of the method: as §1
# [31] = biological target: GalNAc(b1-4)GlcNAc(b1-2)Man
# Summary of the method: as §1
# [32] = biological target: GalNAc(b1-4)GlcNAc(b1-2)Man(a1-3)[GalNAc(b1-4)GlcNAc(b1-2)Man(a1-6)]Man(b1-4)GlcNAc(b1-4)GlcNAc
# Summary of the method: as §1
# [33] = biological target: GalNAc(b1-4)GlcNAc(b1-3)GalNAc(b1-4)GlcNAc
# Summary of the method: as §1
# [34] = biological target: GalNAc(b1-4)GlcNAc6S
# Summary of the method: as §1
# [35] = biological target: GalNAc(b1-6)GalNAc
# Summary of the method: as §1
# [36] = biological target: GalNAc3S(b1-4)GlcNAc
# Summary of the method: as §1
# [37] = biological target: GalNAc3S(b1-4)GlcNAc3S
# Summary of the method: as §1
# [38] = biological target: GalNAc3S(b1-4)[Fuc(a1-3)]GlcNAc
# Summary of the method: as §1
# [39] = biological target: GalNAc4S6S(b1-4)GlcNAc
# Summary of the method: as §1
# [40] = biological target: GalNAc6S(b1-4)GlcNAc
# Summary of the method: as §1
# [41] = biological target: Glc(a1-4)Glc
# Summary of the method: as §1
# [42] = biological target: Glc(a1-4)Glc(a1-4)Glc(a1-4)Glc
# Summary of the method: as §1
# [43] = biological target: Glc(a1-6)Glc(a1-6)Glc
# Summary of the method: as §1
# [44] = biological target: Glc(a1-6)Glc(a1-6)Glc(a1-6)Glc
# Summary of the method: as §1
# [45] = biological target: Glc(b1-4)Glc
# Summary of the method: as §1
binder,measurement,setting,value
B1,glycan array binding signal (z-score),[1],-0.152
same,glycan array binding signal (z-score),[2],-0.114
same,glycan array binding signal (z-score),[3],-0.093
same,glycan array binding signal (z-score),[4],-0.113
same,glycan array binding signal (z-score),[5],-0.11
same,glycan array binding signal (z-score),[6],-0.055
same,glycan array binding signal (z-score),[7],-0.138
same,glycan array binding signal (z-score),[8],0.034
same,glycan array binding signal (z-score),[9],-0.111
same,glycan array binding signal (z-score),[10],-0.068
same,glycan array binding signal (z-score),[11],-0.087
same,glycan array binding signal (z-score),[12],-0.126
same,glycan array binding signal (z-score),[13],-0.137
same,glycan array binding signal (z-score),[14],-0.117
same,glycan array binding signal (z-score),[15],-0.077
same,glycan array binding signal (z-score),[16],0.01
same,glycan array binding signal (z-score),[17],-0.128
same,glycan array binding signal (z-score),[18],-0.144
same,glycan array binding signal (z-score),[19],-0.066
same,glycan array binding signal (z-score),[20],-0.075
same,glycan array binding signal (z-score),[21],-0.154
same,glycan array binding signal (z-score),[22],-0.078
same,glycan array binding signal (z-score),[23],-0.145
same,glycan array binding signal (z-score),[24],-0.132
same,glycan array binding signal (z-score),[25],0.013
same,glycan array binding signal (z-score),[26],-0.171
same,glycan array binding signal (z-score),[27],-0.101
same,glycan array binding signal (z-score),[28],-0.163
same,glycan array binding signal (z-score),[29],0.004
same,glycan array binding signal (z-score),[30],-0.093
same,glycan array binding signal (z-score),[31],-0.111
same,glycan array binding signal (z-score),[32],-0.08
same,glycan array binding signal (z-score),[33],-0.127
same,glycan array binding signal (z-score),[34],-0.154
same,glycan array binding signal (z-score),[35],-0.13
same,glycan array binding signal (z-score),[36],-0.109
same,glycan array binding signal (z-score),[37],-0.087
same,glycan array binding signal (z-score),[38],-0.134
same,glycan array binding signal (z-score),[39],-0.127
same,glycan array binding signal (z-score),[40],-0.125
same,glycan array binding signal (z-score),[41],-0.031
same,glycan array binding signal (z-score),[42],-0.017
same,glycan array binding signal (z-score),[43],-0.134
same,glycan array binding signal (z-score),[44],-0.021
same,glycan array binding signal (z-score),[45],-0.043

# Reference: the supplement of paper PMC8728848
